The data set is described as follows: xn = mol fraction of the nth substance listed. To be noted: 303.15 K, 100 kPa.

Some of these densities may be calculated back from excess volumes.

Turning to `CC(=O)[O-].CCCC[N+](CCCC)(CCCC)CCCC` + CC(=O)O, the mass density (as a rule, mass per unit of volume) is recorded as 958 kg/m3 (x2 = 0); 965 kg/m3 (x2 = 0.1); 978 kg/m3 (x2 = 0.2); 993 kg/m3 (x2 = 0.33); 1017 kg/m3 (x2 = 0.5); 1035 kg/m3 (x2 = 0.67). The mass density reads like this: (x2 = 0.8) 1042 kg/m3; (x2 = 0.9) 1041 kg/m3.

Consider `CC(=O)[O-].CCCC[N+](CCCC)(CCCC)CCCC` + CCCCN, for which the mass density by setting is: (x2 = 0) 958 kg/m3; (x2 = 0.1) 943 kg/m3; (x2 = 0.33) 903 kg/m3; (x2 = 0.5) 871 kg/m3; (x2 = 0.67) 831 kg/m3; (x2 = 0.8) 794 kg/m3. Further, where the note is “x2 = 0.9”, the mass density is recorded as 764 kg/m3.

For the origin of these results see a compilation of properties of binary mixtures (doi:10.1039/c7cp04078d).
